{"source": "the supplement of paper PMC4604168 (melanoma cell lines)", "note": "The list shows a part of the results. Single values are uncertain, as repeats are few or missing.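 Also: cell number obtained by counting DAPI-stained nuclei in high-throughput microscope images with image analysis software, screen run in 1,536-well plates.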"}
{"tested_on": "COLO829", "assay": "cell count relative to DMSO control; melanoma cells; higher = more viable cells", "conditions": "library dose: low library concentration; 72 h", "units": {"cell count": "%"}}
{"smiles": "C[C@]12O[C@H](C[C@]1(O)CO)n1c3ccccc3c3c4c(c5c6ccccc6n2c5c31)CNC4=O", "note": "[Lestaurtinib] + CCN(CC)CCNC(=O)c1c(C)[nH]c(/C=C2\\C(=O)Nc3ccc(F)cc32)c1C [sunitinib] (first compound 0.004 µM, partner dose 0.4 µM)", "cell count": 124}
{"smiles": "C[C@]12O[C@H](C[C@]1(O)CO)n1c3ccccc3c3c4c(c5c6ccccc6n2c5c31)CNC4=O", "note": "[Lestaurtinib] + CS(=O)(=O)c1ccc(C(=O)Nc2ccc(Cl)c(-c3ccccn3)c2)c(Cl)c1 [vismodegib] (first compound 0.004 µM, partner dose 1 µM)", "cell count": 90.2}
{"smiles": "C[As](C)SC[C@H](NC(=O)CC[C@H](N)C(=O)O)C(=O)NCC(=O)O", "note": "[Darinaparsin] + Cn1cc(/C=C2\\C(=O)Nc3cccnc32)c2ccccc21 [GW441756] (first compound 0.4 µM, partner dose 0.4 µM)", "cell count": 104}
{"smiles": "C[C@]12O[C@H](C[C@]1(O)CO)n1c3ccccc3c3c4c(c5c6ccccc6n2c5c31)CNC4=O", "note": "[Lestaurtinib] + CC(=O)c1c(C)c2cnc(Nc3ccc(N4CCNCC4)cn3)nc2n(C2CCCC2)c1=O [palbociclib] (first compound 0.004 µM, partner dose 0.04 µM)", "cell count": 84.5}
{"smiles": "C[C@]12O[C@H](C[C@]1(O)CO)n1c3ccccc3c3c4c(c5c6ccccc6n2c5c31)CNC4=O", "note": "[Lestaurtinib] + Nc1nc(F)nc2c1ncn2[C@@H]1O[C@H](CO)[C@@H](O)[C@@H]1O [fludarabine] (first compound 0.004 µM, partner dose 0.2 µM)", "cell count": 99.4}
{"smiles": "Cn1cc(C2=C(c3cn(C4CCN(Cc5ccccn5)CC4)c4ccccc34)C(=O)NC2=O)c2ccccc21", "note": "[Enzastaurin] + C[C@]12O[C@H](C[C@]1(O)CO)n1c3ccccc3c3c4c(c5c6ccccc6n2c5c31)CNC4=O [Lestaurtinib] (first compound 0.8 µM, partner dose 0.004 µM)", "cell count": 112}
{"smiles": "C[C@]12O[C@H](C[C@]1(O)CO)n1c3ccccc3c3c4c(c5c6ccccc6n2c5c31)CNC4=O", "note": "[Lestaurtinib] + CS(=O)(=O)CCNCc1ccc(-c2ccc3ncnc(Nc4ccc(OCc5cccc(F)c5)c(Cl)c4)c3c2)o1 [lapatinib] (first compound 0.004 µM, partner dose 0.8 µM)", "cell count": 103}
{"smiles": "C[C@]12O[C@H](C[C@]1(O)CO)n1c3ccccc3c3c4c(c5c6ccccc6n2c5c31)CNC4=O", "note": "[Lestaurtinib] + Clc1ccc(Nc2nnc(Cc3ccncc3)c3ccccc23)cc1 [vatalanib] (first compound 0.004 µM, partner dose 2 µM)", "cell count": 90.7}
{"smiles": "C[C@]12O[C@H](C[C@]1(O)CO)n1c3ccccc3c3c4c(c5c6ccccc6n2c5c31)CNC4=O", "note": "[Lestaurtinib] + Cc1cc(Nc2cc(N3CCN(C)CC3)nc(/C=C/c3ccccc3)n2)n[nH]1 [ENMD2076] (first compound 0.004 µM, partner dose 0.04 µM)", "cell count": 81.7}
{"smiles": "C[C@]12O[C@H](C[C@]1(O)CO)n1c3ccccc3c3c4c(c5c6ccccc6n2c5c31)CNC4=O", "note": "[Lestaurtinib] + C#Cc1cccc(Nc2ncnc3cc(OCCOC)c(OCCOC)cc23)c1 [erlotinib] (first compound 0.004 µM, partner dose 0.8 µM)", "cell count": 95.9}
{"smiles": "C[C@]12O[C@H](C[C@]1(O)CO)n1c3ccccc3c3c4c(c5c6ccccc6n2c5c31)CNC4=O", "note": "[Lestaurtinib] + Nc1ncn([C@H]2C[C@H](O)[C@@H](CO)O2)c(=O)n1 [decitabine] (first compound 0.004 µM, partner dose 0.1 µM)", "cell count": 90.3}
{"smiles": "C[C@]12O[C@H](C[C@]1(O)CO)n1c3ccccc3c3c4c(c5c6ccccc6n2c5c31)CNC4=O", "note": "[Lestaurtinib] + COCC[n+]1c2c(n(Cc3cnccn3)c1C)C(=O)c1ccccc1C2=O [YM155] (first compound 0.004 µM, partner dose 0.0004 µM)", "cell count": 103}
{"smiles": "C[As](C)SC[C@H](NC(=O)CC[C@H](N)C(=O)O)C(=O)NCC(=O)O", "note": "[Darinaparsin] + COC(=O)c1sccc1S(=O)(=O)Nc1ccc(Nc2ccccc2)cc1OC [GSK0660] (first compound 0.4 µM, partner dose 1 µM)", "cell count": 95.3}
{"smiles": "C[C@]12O[C@H](C[C@]1(O)CO)n1c3ccccc3c3c4c(c5c6ccccc6n2c5c31)CNC4=O", "note": "[Lestaurtinib] + C[C@]1(c2nc3c(C(N)=O)cccc3[nH]2)CCCN1 [Veliparib] (first compound 0.004 µM, partner dose 1.4 µM)", "cell count": 120}
{"smiles": "C[As](C)SC[C@H](NC(=O)CC[C@H](N)C(=O)O)C(=O)NCC(=O)O", "note": "[Darinaparsin] + O=C(Oc1ccc([N+](=O)[O-])cc1)N1CCC(C(O)(c2ccc3c(c2)OCO3)c2ccc3c(c2)OCO3)CC1 [JZL184] (first compound 0.4 µM, partner dose 1 µM)", "cell count": 103}
